The campaign covered roughly 3,200 compounds. About 75 (2%) showed an effect of 50% or more. Some of the results follow.
These molecules were tested on T1, S. aureus MSSA476. Conditions: relative growth, OD600, TSB; 25 µM; inhibitor.
T1 construct: MSSA476
Set-up: species or system S. aureus MSSA476 (TSB) or V. cholerae SAD30 (LB); 384-well bacterial growth screen at 25 uM, OD600 relative to DMSO control

Q: With `O=C(CCl)NCC(=O)N1CCC(Cc2ccccc2)CC1` [6-F04, N-[2-(4-benzylpiperidin-1-yl)-2-oxoethyl]-2-chloroacetamide] as the molecule, how does the “% of control remaining” value read?
A: 90.4878%

Q: `O=C(CCl)N(CC1=CCCOC1)Cc1ccccc1` [7-J20, N-benzyl-2-chloro-N-[(5,6-dihydro-2H-pyran-3-yl)methyl]acetamide] was tested. Which “% of control remaining” value did it give?
A: 108.948%

Q: For `C=CC(=O)N1CCC(C(=O)Nc2cccc(-c3n[nH]c(C)n3)c2)CC1` [2-J09, N-[3-(5-methyl-1H-1,2,4-triazol-3-yl)phenyl]-1-(prop-2-enoyl)piperidine-4-carboxamide], which “% of control remaining” value is on record?
A: 125.674%

Q: Which “% of control remaining” value does the source give for `Cc1ccc(C)c(C=C(C#N)C(=O)Nc2nccs2)c1` [9-N13, 2-cyano-3-(2,5-dimethylphenyl)-N-(1,3-thiazol-2-yl)prop-2-enamide] here?
A: 100.375%

Q: How did the “% of control remaining” value turn out when `C=CC(=O)NCc1nnc2n1CCCCC2` [3-N07, N-({5H,6H,7H,8H,9H-[1,2,4]triazolo[4,3-a]azepin-3-yl}methyl)prop-2-enamide] was run?
A: 121.202%

Q: For `O=C(CCl)c1ccc(Cl)c(Cl)c1` [10-L16, 2-chloro-1-(3,4-dichlorophenyl)ethan-1-one], which “% of control remaining” value is on record?
A: 5%

Q: Which “% of control remaining” value does the source give for `O=C(NC1CC1)C1(C(=O)N2CCSSCC2)CCC1` [10-B21, N-cyclopropyl-1-(1,2,5-dithiazepane-5-carbonyl)cyclobutane-1-carboxamide] here?
A: 110.313%

Q: How did the “% of control remaining” value turn out when `CC(Cl)C(=O)N1N=C(c2ccc(Cl)cc2)CC1c1ccco1` (centres unmarked) [5-H18, 2-chloro-1-[3-(4-chlorophenyl)-5-(furan-2-yl)-4,5-dihydro-1H-pyrazol-1-yl]propan-1-one] was run?
A: 100.546%

Q: Which “% of control remaining” value does the source give for `COc1ccc(C=C(C#N)C(=O)NC(C)c2ccccc2)cc1O` (centres unmarked) [8-J18, 2-cyano-3-(3-hydroxy-4-methoxyphenyl)-N-(1-phenylethyl)prop-2-enamide] here?
A: 122.158%

Q: Which “% of control remaining” value does the source give for `CSc1ccccc1NC(=O)CCl` [4-E11, 2-chloro-N-[2-(methylsulfanyl)phenyl]acetamide] here?
A: 101%

Q: With `O=C(CCl)NCCc1ncc(F)cn1` [6-E19, 2-chloro-N-[2-(5-fluoropyrimidin-2-yl)ethyl]acetamide] as the molecule, how does the “% of control remaining” value read?
A: 88.439%

Q: `CC(C)NC(=O)C(C#N)=Cc1c(Cl)nc2ccccn12` [9-A11, 3-{2-chloroimidazo[1,2-a]pyridin-3-yl}-2-cyano-N-(propan-2-yl)prop-2-enamide] was tested. Which “% of control remaining” value did it give?
A: 90.7865%

Q: `CC1CN(c2cccc(CN(C)C(=O)C(C)Cl)c2)S(=O)(=O)C1` (centres unmarked) [6-L18, 2-chloro-N-methyl-N-{[3-(4-methyl-1,1-dioxo-1lambda6,2-thiazolidin-2-yl)phenyl]methyl}propanamide] was tested. Which “% of control remaining” value did it give?
A: 90.4878%

Q: `NC(=O)CCN(C(=O)CCl)c1ccc(F)cc1` [5-C03, 3-[2-chloro-N-(4-fluorophenyl)acetamido]propanamide] was tested. Which “% of control remaining” value did it give?
A: 83.4244%

Q: For `N#CC(=Cc1ccc(OC(F)F)cc1)C(=O)N1CCCCC1` [8-J20, 3-[4-(difluoromethoxy)phenyl]-2-(piperidine-1-carbonyl)prop-2-enenitrile], which “% of control remaining” value is on record?
A: 117.178%

Q: For `C=CC(=O)N1CCN(S(=O)(=O)CC)CC1` [3-D20, 1-[4-(ethanesulfonyl)piperazin-1-yl]prop-2-en-1-one], which “% of control remaining” value is on record?
A: 89.1598%

Q: `COc1ccccc1NC(=O)C(C#N)=Cc1sccc1C` [9-P19, 2-cyano-N-(2-methoxyphenyl)-3-(3-methylthiophen-2-yl)prop-2-enamide] was tested. Which “% of control remaining” value did it give?
A: 76.7041%

Q: How did the “% of control remaining” value turn out when `C=CC(=O)N1CCC(C(=O)Nc2nc3cc(F)c(C)cc3s2)CC1` [2-K15, N-(5-fluoro-6-methyl-1,3-benzothiazol-2-yl)-1-(prop-2-enoyl)piperidine-4-carboxamide] was run?
A: 108.616%

Q: With `C=CC(=O)NC(=O)NCc1ccccc1` [1-I04, 1-benzyl-3-(prop-2-enoyl)urea] as the molecule, how does the “% of control remaining” value read?
A: 108.308%

Q: For `COc1cc(C)c(C=C(C#N)C(=O)Nc2ccc(C)cc2)cc1C(C)C` [9-C04, 2-cyano-3-[4-methoxy-2-methyl-5-(propan-2-yl)phenyl]-N-(4-methylphenyl)prop-2-enamide], which “% of control remaining” value is on record?
A: 99.176%

Q: For `Cc1cc(C)c(NC(=O)C(C#N)=Cc2cccnc2)c(C)c1` [8-B17, 2-cyano-3-(pyridin-3-yl)-N-(2,4,6-trimethylphenyl)prop-2-enamide], which “% of control remaining” value is on record?
A: 93.9419%

Q: How did the “% of control remaining” value turn out when `Cc1cc(C(C)(C)C)cc(C)c1CCNC(=O)CCl` [4-A16, N-[2-(4-tert-butyl-2,6-dimethylphenyl)ethyl]-2-chloroacetamide] was run?
A: 99.4759%

Q: How did the “% of control remaining” value turn out when `CCOc1cc(C=C(C#N)C(=O)N2CCCC2)cc(Cl)c1O` [8-M06, 3-(3-chloro-5-ethoxy-4-hydroxyphenyl)-2-(pyrrolidine-1-carbonyl)prop-2-enenitrile] was run?
A: 137.095%

Q: Which “% of control remaining” value does the source give for `C=CC(=O)N1CCCC(NS(=O)(=O)c2cccc(F)c2)C1` (centres unmarked) [3-G15, 3-fluoro-N-[1-(prop-2-enoyl)piperidin-3-yl]benzene-1-sulfonamide] here?
A: 112.146%

Q: Which “% of control remaining” value does the source give for `C=CC(=O)N(CCO)c1ccc(C(=O)O)cc1` [1-M10, 4-[N-(2-hydroxyethyl)prop-2-enamido]benzoic acid] here?
A: 117.451%

Q: How did the “% of control remaining” value turn out when `CC(Cl)C(=O)N1CCN(C(C)C)c2ccccc2C1` (centres unmarked) [7-O07, 2-chloro-1-[1-(propan-2-yl)-2,3,4,5-tetrahydro-1H-1,4-benzodiazepin-4-yl]propan-1-one] was run?
A: 99.843%

Q: `CCc1nsc(N2CCN(C(=O)C(C#N)=Cc3ccco3)CC2)n1` [9-K05, 2-[4-(3-ethyl-1,2,4-thiadiazol-5-yl)piperazine-1-carbonyl]-3-(furan-2-yl)prop-2-enenitrile] was tested. Which “% of control remaining” value did it give?
A: 96.779%

Q: With `CC(Cl)C(=O)Nc1ccc([N+](=O)[O-])cc1C(F)(F)F` (centres unmarked) [6-D06, 2-chloro-N-[4-nitro-2-(trifluoromethyl)phenyl]propanamide] as the molecule, how does the “% of control remaining” value read?
A: 89.8049%

Q: For `CC(Cl)C(=O)N1CCCc2c1ccnc2N(C)C` (centres unmarked) [6-D14, 2-chloro-1-[5-(dimethylamino)-1,2,3,4-tetrahydro-1,6-naphthyridin-1-yl]propan-1-one], which “% of control remaining” value is on record?
A: 108.585%

Q: `C=CC(=O)N1CCC(Cc2noc(C)n2)CC1` [2-G22, 1-{4-[(5-methyl-1,2,4-oxadiazol-3-yl)methyl]piperidin-1-yl}prop-2-en-1-one] was tested. Which “% of control remaining” value did it give?
A: 99.913%

Q: Which “% of control remaining” value does the source give for `C=CC(=O)Nc1cnc(S(C)(=O)=O)c(C)c1` [2-O14, N-(6-methanesulfonyl-5-methylpyridin-3-yl)prop-2-enamide] here?
A: 109.661%

Q: How did the “% of control remaining” value turn out when `COc1ccc2cc(C=C(C#N)C(=O)Nc3nccs3)ccc2c1` [9-E08, 2-cyano-3-(6-methoxynaphthalen-2-yl)-N-(1,3-thiazol-2-yl)prop-2-enamide] was run?
A: 100.375%

Q: Which “% of control remaining” value does the source give for `C=CC(=O)N(C)CC(=O)N1CCC(C)(c2nc(C)no2)CC1` [2-B22, N-methyl-N-{2-[4-methyl-4-(3-methyl-1,2,4-oxadiazol-5-yl)piperidin-1-yl]-2-oxoethyl}prop-2-enamide] here?
A: 110.009%

Q: How did the “% of control remaining” value turn out when `CN(C)c1nc(N2CCOCC2)ncc1NC(=O)CCl` [5-M22, 2-chloro-N-[4-(dimethylamino)-2-(morpholin-4-yl)pyrimidin-5-yl]acetamide] was run?
A: 96.9035%

Q: Which “% of control remaining” value does the source give for `C=CC(=O)NCC1CCC2(CCCC2)O1` (centres unmarked) [1-A06, N-({1-oxaspiro[4.4]nonan-2-yl}methyl)prop-2-enamide] here?
A: 112.176%

Q: `C=CC(=O)NCc1ncccc1-n1cccn1` [2-N19, N-{[3-(1H-pyrazol-1-yl)pyridin-2-yl]methyl}prop-2-enamide] was tested. Which “% of control remaining” value did it give?
A: 137.511%

Q: `C=CC(=O)N1CCC(C(=O)N2CCCN(c3nccs3)CC2)CC1` [2-L20, 1-{4-[4-(1,3-thiazol-2-yl)-1,4-diazepane-1-carbonyl]piperidin-1-yl}prop-2-en-1-one] was tested. Which “% of control remaining” value did it give?
A: 104.787%

Q: For `CC(C)(CNC(=O)CCl)CC1CCOCC1` [6-C04, 2-chloro-N-[2,2-dimethyl-3-(oxan-4-yl)propyl]acetamide], which “% of control remaining” value is on record?
A: 94.2439%

Q: `CNS(=O)(=O)c1cc(NC(=O)CCl)ccc1C` [6-M07, 2-chloro-N-[4-methyl-3-(methylsulfamoyl)phenyl]acetamide] was tested. Which “% of control remaining” value did it give?
A: 112.341%

Q: How did the “% of control remaining” value turn out when `C=CC(=O)N1CCC(C(=O)N[C@@H](C)c2ccc(Cl)s2)CC1` [3-E22, N-[(1S)-1-(5-chlorothiophen-2-yl)ethyl]-1-(prop-2-enoyl)piperidine-4-carboxamide] was run?
A: 107.27%

Q: `C=CC(=O)N1CCOCC1c1noc(C)n1` (centres unmarked) [3-O11, 1-[3-(5-methyl-1,2,4-oxadiazol-3-yl)morpholin-4-yl]prop-2-en-1-one] was tested. Which “% of control remaining” value did it give?
A: 92.9909%

Q: `C=CC(=O)NCc1ccc(C(=O)N2CCOCC2)cc1` [1-L17, N-{[4-(morpholine-4-carbonyl)phenyl]methyl}prop-2-enamide] was tested. Which “% of control remaining” value did it give?
A: 103.736%

Q: With `CC(NC(=O)C(C#N)=Cc1cnn(C)c1)c1ccccc1` (centres unmarked) [8-N10, 2-cyano-3-(1-methyl-1H-pyrazol-4-yl)-N-(1-phenylethyl)prop-2-enamide] as the molecule, how does the “% of control remaining” value read?
A: 95.9336%

Q: For `C=CC(=O)N1Cc2cnn(C)c2C1` [3-P14, 1-{1-methyl-1H,4H,5H,6H-pyrrolo[3,4-c]pyrazol-5-yl}prop-2-en-1-one], which “% of control remaining” value is on record?
A: 91.946%

From publication PMC11995724, “Antibiotic target discovery by integrated phenotypic and activity-based profiling of electrophilic fragments” (Cell chemical biology, 2025)
